This is an account of results in patent US20240392040A1 (AKESO HUIKE SHANGHAI, published 2024).

The target in experiment [1] is T1, LAG3 on 293T-LAG3 membrane surface (full-length human LAG3 on cells) (human, UniProt P18627 23-525).
T1 sequence (looked up): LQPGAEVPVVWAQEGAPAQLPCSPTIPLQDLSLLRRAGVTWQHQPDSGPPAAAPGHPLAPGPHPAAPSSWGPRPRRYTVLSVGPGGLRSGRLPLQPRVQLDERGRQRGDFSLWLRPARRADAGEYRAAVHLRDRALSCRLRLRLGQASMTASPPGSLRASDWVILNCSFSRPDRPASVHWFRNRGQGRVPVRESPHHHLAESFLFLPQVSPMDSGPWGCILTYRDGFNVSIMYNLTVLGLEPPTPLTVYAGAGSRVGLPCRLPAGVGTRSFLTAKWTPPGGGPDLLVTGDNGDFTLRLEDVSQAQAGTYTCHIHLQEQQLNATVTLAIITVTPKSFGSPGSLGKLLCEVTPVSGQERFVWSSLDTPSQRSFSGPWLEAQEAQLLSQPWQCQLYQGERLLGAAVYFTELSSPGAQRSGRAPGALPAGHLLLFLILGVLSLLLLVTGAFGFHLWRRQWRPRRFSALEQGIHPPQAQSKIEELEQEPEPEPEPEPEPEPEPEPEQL
In words: cell-based or functional assay.

Experiment [2] addresses T2, PD-1 on 293T-PD1 membrane surface (full-length human PD-1 on cells) (human, UniProt Q15116 25-288).
T2 construct: whole, on cells; the Promega PD-1 effector cells are bought; also called CHO-K1-PD1 cells
In words: flow cytometry on 293T-PD1 cells. As to the method: 100 μL of 1% PBSA was then added to each well, and the mixture was centrifuged at 350×g for 5 min, followed by removal of the supernatant. […] The mixture was mixed gently and uniformly, and then incubated on ice for 1 h. 100 μL of 1% PBSA was added to each well, and the mixture was centrifuged at 350×g for 5 min, followed by removal of the supernatant. Then the plate was washed twice with 200 μL of 1% PBSA. […] The mixture was mixed well and then incubated on ice in the dark for 0.5 h. 100 μL of 1% PBSA was added to each well, and the mixture was centrifuged at 350×g for 5 min, followed by removal of the supernatant. Then the plate was washed twice with 200 μL of 1% PBSA. 400 μL of 1% PBSA was added to each well to resuspend the cell pellets, and the mixture was transferred to a flow cytometry tube for FACSCalibur assay.
(Flow cytometry measures light scatter and fluorescence of single cells or particles in a stream.)

In the next experiment the target is T3, human LAG3-mFc (human, UniProt P18627 23-450, limits assumed).
T3 construct: not shown: mouse IgG Fc (mFc)
T3 sequence (looked up): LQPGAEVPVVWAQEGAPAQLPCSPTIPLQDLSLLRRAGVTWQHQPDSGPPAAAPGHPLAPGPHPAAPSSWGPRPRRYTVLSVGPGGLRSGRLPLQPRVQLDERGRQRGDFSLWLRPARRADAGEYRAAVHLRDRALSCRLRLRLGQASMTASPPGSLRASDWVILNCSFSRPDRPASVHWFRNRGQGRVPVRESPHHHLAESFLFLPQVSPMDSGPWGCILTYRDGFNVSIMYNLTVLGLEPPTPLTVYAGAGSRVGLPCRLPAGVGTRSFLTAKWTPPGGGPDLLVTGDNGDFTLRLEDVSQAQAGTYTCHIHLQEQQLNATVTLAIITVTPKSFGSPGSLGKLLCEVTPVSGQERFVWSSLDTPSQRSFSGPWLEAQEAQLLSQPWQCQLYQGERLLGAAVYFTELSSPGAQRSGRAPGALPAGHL
In words: indirect ELISA, coated human LAG3-mFc. The protocol: Then the ELISA plate coated with the antigen was washed once with PBST and then blocked with a PBS solution containing 1% BSA as a blocking solution at 37° C. for 2 h. After blocking, the ELISA plate was washed 3 times with PBST. The ELISA plate containing the test antibodies was incubated at 37° C. for 30 min and then washed 3 times with PBST. […] After incubation, the plate was washed 4 times with PBST, TMB (Neogen, 308177) was added for chromogenesis in the dark for 5 min, and then a stop solution was added to terminate the chromogenic reaction. The ELISA plate was put into an ELISA plate reader immediately, and the OD value of each well in the ELISA plate was read at 450 nm. The data were analyzed and processed by SoftMax Pro 6.2.1.

In the next experiment the target is T4, human PD-1-mFc (human, UniProt Q15116 fragment, limits assumed).
T4 construct: not shown: mouse IgG Fc (mFc)
In words: indirect ELISA, coated human PD-1-mFc. As to the method:
Then the ELISA plate coated with the antigen was washed once with PBST and then blocked with a PBS solution containing 1% BSA as a blocking solution at 37° C. for 2 h. After blocking, the ELISA plate was washed 3 times with PBST. The ELISA plate containing the test antibodies was incubated at 37° C. for 30 min and then washed 3 times with PBST.
After incubation, the plate was washed 4 times with PBST, TMB (Neogen, 308177) was added for chromogenesis in the dark for 5 min, and then a stop solution was added to terminate the chromogenic reaction. The ELISA plate was put into an ELISA plate reader immediately, and the OD value of each well in the ELISA plate was read at 450 nm. The data were analyzed and processed by SoftMax Pro 6.2.1.
(ELISA stands for enzyme-linked immunosorbent assay.)

A further experiment has as its target T5, human PD-1-mFc-Biotin (human, UniProt Q15116 fragment, limits assumed, biotin label (site not stated)).
T5 construct: not shown: mouse IgG Fc (mFc)
Description: competitive ELISA, blocking of PD-1-mFc-Biotin binding to coated human PDL1-mFc. The protocol:
After incubation, the ELISA plate was blocked with a PBS solution containing 1% BSA at 37° C. for 2 h. After blocking, the plate was washed three times and dried. The antibody was serially diluted on a dilution plate in a 3-fold dilution ratio to achieve 7 concentrations with 80 nM as the starting concentration (at a final concentration of 40 nM), and a blank control was set. […] Then the mixture was incubated at room temperature for 10 min. Then the mixture after reaction was added to the coated ELISA plate, and the ELISA plate was incubated at 37° C. for 30 min. After incubation, the plate was washed three times with PBST and dried. An SA-HRP (KPL, 14-30-00) working solution was added, and the plate was incubated at 37° C. for 30 min. After incubation, the plate was washed four times and dried. Then TMB (Neogen, 308177) was added in the dark for chromogenesis for 5 min, and then a stop solution was added to terminate the chromogenic reaction. The ELISA plate was put into an ELISA plate reader immediately, and the OD value of each well in the ELISA plate was read at 450 nm. The data were analyzed and processed by SoftMax Pro 6.2.1.

Sequence of human PD-1-mFc-Biotin (Q15116 25-170 limits assumed): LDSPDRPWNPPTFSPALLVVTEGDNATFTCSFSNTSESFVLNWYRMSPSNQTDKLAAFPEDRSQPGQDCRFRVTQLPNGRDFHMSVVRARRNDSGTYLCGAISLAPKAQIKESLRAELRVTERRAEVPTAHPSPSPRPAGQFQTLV
Sequence of human PD-1-mFc (Q15116 25-170 limits assumed): as above

B1: Bi-PGV02 (bispecific antibody, human IgG4 S228P, kappa, F234A L235A)
heavy: QVQLQQWGAGLLKPSETLSLTCAVYGGSISDYYWNWIRQPPGKGLEWIGEINHRGTTNSNPSLKSRVTLSLDTSKNQFSLKLRSVTAADTAVYYCAFGYSDYEYDWFDPWGQGTLVTVSSASTKGPSVFPLAPCSRSTSESTAALGCLVKDYFPEPVTVSWNSGALTSGVHTFPAVLQSSGLYSLSSVVTVPSSSLGTKTYTCNVDHKPSNTKVDKRV[skipping human IgG4 Fc with S228P F234A L235A (EU numbers)]GGGGSGGGGSGGGGSGGGGSEVQLVESGGGLVQPGGSLRLSCAASGFAFSSYDMSWVRQAPGKGLDWVATISGGGRYTYYPDSVKGRFTISRDNSKNNLYLQMNSLRAEDTALYYCANRYGEAWFAYWGQGTLVTVSSGGGGSGGGGSGGGGSGGGGSDIQMTQSPSSMSASVGDRVTFTCRASQDINTYLSWFQQKPGKSPKTLIYRANRLVSGVPSRFSGSGSGQDYTLTISSLQPEDMATYYCLQYDEFPLTFGAGTKLELK
light: EIVLTQSPATLSLSPGERATLSCRASQTISSYLAWYQQKPGQAPRLLIYDASNRATGIPARFSGSGSGTDFTLTISSLEPEDFAVYYCQQRSNWPITFGQGTNLEIKRTVAAPSVFIFPPSDEQLKSGTASVVCLLNNFYPREAKVQWKVDNALQSGNSQESVTEQDSKDSTYSLSSTLTLSKADYEKHKVYACEVTHQGLSSPVTKSFNRGEC
B1: the “EC50 (nM), luciferase reporter (RLU), Jurkat-NFAT-PD1-LAG3 cells + SEE-treated Raji cells” value in experiment [1] amounted to 1.48 nM. In experiment [2], the half-maximal effective concentration (EC50) – broadly, the concentration that produces a half-maximal response – is 7.21 nM.

B2: H7L8(hG1WT) (antibody, human IgG1, kappa)
heavy: QVQLQQWGAGLLKPSETLSLTCAVYGGSISDYYWNWIRQPPGKGLEWIGEINHRGTTNSNPSLKSRVTLSLDTSKNQFSLKLRSVTAADTAVYYCAFGYSDYEYDWFDPWGQGTLVTVSS[skipping human IgG1 constant region]
light: EIVLTQSPATLSLSPGERATLSCRASQTISSYLAWYQQKPGQAPRLLIYDASNRATGIPARFSGSGSGTDFTLTISSLEPEDFAVYYCQQRSNWPITFGQGTNLEIKRTVAAPSVFIFPPSDEQLKSGTASVVCLLNNFYPREAKVQWKVDNALQSGNSQESVTEQDSKDSTYSLSSTLTLSKADYEKHKVYACEVTHQGLSSPVTKSFNRGEC
notes: Humanized anti-LAG3 antibody, wild-type human IgG1 constant region
In turn, B2 came in with an EC50 in the experiment with human LAG3-mFc of 0.045 nM.

B3: BS-PL021A (bispecific antibody, human IgG1, kappa)
heavy: QVQLQQWGAGLLKPSETLSLTCAVYGGSISDYYWNWIRQPPGKGLEWIGEINHRGTTNSNPSLKSRVTLSLDTSKNQFSLKLRSVTAADTAVYYCAFGYSDYEYDWFDPWGQGTLVTVSSASTKGPSVFPLAPSSKSTSGGTAALGCLVKDYFPEPVTVSWNSGALTSGVHTFPAVLQSSGLYSLSSVVTVPSSSLGTQTYICNVNHKPSNTKVDKKV[skipping human IgG1 Fc with L234A L235A G237A (EU numbers)]GGGGSGGGGSGGGGSEVQLVESGGGLVQPGGSLRLSCAASGFAFSSYDMSWVRQAPGKGLDWVATISGGGRYTYYPDSVKGRFTISRDNSKNNLYLQMNSLRAEDTALYYCANRYGEAWFAYWGQGTLVTVSSGGGGSGGGGSGGGGSGGGGSDIQMTQSPSSMSASVGDRVTFTCRASQDINTYLSWFQQKPGKSPKTLIYRANRLVSGVPSRFSGSGSGQDYTLTISSLQPEDMATYYCLQYDEFPLTFGAGTKLELKR
light: EIVLTQSPATLSLSPGERATLSCRASQTISSYLAWYQQKPGQAPRLLIYDASNRATGIPARFSGSGSGTDFTLTISSLEPEDFAVYYCQQRSNWPITFGQGTNLEIKRTVAAPSVFIFPPSDEQLKSGTASVVCLLNNFYPREAKVQWKVDNALQSGNSQESVTEQDSKDSTYSLSSTLTLSKADYEKHKVYACEVTHQGLSSPVTKSFNRGEC
notes: Morrison form (IgG-scFv): an scFv at the C-terminus of each of the two heavy chains
Regarding B3, the EC50 in experiment [2] is 6.85 nM; in the experiment with human PD-1-mFc it was 0.066 nM; with human LAG3-mFc, 0.073 nM; with human PD-1-mFc-Biotin it was 3.03 nM.
